# Measurements taken from PubChem BioAssay AID504332 (National Center for Advancing Translational Sciences (NCATS), 2011).
# Out of some 350,000 compounds screened, about 31,000 (8.9%) were called active. This list was built around the results that the source calls inconclusive (neither active nor inactive); the mix of calls is not that of the screen. Calls follow the shape of the dose curve; as a rule, active = well fitted inhibition curve with a large enough effect; inconclusive = small, poorly fitted or top-dose-only effect; inactive = no such curve, though single readings can be large or run the other way. Where the call is inconclusive, the potency comes from a doubtful curve fit.
# Target: Histone-lysine N-methyltransferase EHMT2 (Homo sapiens) (UniProt Q96KQ7)
# Chain of UniProt Q96KQ7 (Q96KQ7 whole entry, looked up): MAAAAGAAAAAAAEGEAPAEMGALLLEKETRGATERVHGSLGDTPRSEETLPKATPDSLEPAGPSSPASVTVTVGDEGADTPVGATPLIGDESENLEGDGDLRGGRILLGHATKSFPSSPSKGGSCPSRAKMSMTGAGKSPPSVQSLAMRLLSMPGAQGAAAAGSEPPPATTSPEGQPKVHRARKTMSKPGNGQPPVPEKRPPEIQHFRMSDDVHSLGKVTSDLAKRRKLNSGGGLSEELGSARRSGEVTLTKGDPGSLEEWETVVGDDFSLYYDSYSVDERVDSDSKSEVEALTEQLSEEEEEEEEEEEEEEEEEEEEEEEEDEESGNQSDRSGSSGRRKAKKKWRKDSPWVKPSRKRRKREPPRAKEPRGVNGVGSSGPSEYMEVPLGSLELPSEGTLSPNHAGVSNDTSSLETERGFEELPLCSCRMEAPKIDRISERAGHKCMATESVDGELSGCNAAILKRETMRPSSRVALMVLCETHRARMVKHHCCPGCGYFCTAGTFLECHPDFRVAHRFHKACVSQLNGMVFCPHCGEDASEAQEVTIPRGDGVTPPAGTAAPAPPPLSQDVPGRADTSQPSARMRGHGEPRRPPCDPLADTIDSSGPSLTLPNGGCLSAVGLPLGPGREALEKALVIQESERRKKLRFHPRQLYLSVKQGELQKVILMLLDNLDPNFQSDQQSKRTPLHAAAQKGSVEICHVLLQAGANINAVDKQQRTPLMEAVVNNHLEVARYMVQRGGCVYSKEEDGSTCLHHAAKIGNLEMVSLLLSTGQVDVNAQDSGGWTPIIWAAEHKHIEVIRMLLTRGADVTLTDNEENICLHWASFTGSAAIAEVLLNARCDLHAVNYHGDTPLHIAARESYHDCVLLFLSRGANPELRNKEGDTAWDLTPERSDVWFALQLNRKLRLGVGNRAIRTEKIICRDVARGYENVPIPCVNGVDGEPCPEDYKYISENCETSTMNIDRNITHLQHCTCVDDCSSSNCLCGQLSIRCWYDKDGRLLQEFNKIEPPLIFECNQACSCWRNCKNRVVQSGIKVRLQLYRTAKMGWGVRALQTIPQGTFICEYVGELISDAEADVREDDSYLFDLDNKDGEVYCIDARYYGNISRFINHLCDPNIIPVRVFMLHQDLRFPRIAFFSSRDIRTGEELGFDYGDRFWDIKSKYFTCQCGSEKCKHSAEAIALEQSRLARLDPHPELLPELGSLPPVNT
# Assay: qHTS Assay for Inhibitors of Histone Lysine Methyltransferase G9a; also: nearly all actives have a fitted effect of over 75% in size
# Conditions: G9a H3K9 monomethylation, AlphaScreen, 2 h; activity, negative = inhibition: at 59 µM (top of the series) unless noted
# In short: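 G9a (20 nM) preincubated 15 min RT with compounds, then 500 nM biotinylated H3K9 peptide and 20 uM SAM added; 2 h RT reaction. Monomethyl-H3K9 product detected by AlphaScreen with anti-H3K9me1 antibody, streptavidin donor and anti-rabbit IgG acceptor beads.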
# % is scaled to controls: 0 for no effect and ±100 for the full control effect; potency is read from the fitted curve at half-maximal effect; tags tell the direction and shape of the fitted curve.
Structure (SMILES),Potency,"activity, negative = inhibition"
O=C(O)C1CC(=O)N(c2ccc(OCc3c(F)cccc3Cl)cc2)C1 (stereo not given),"inconclusive: 28.2 µM [inhibitor, partial curve, poor fit]",–
Cc1noc(C)c1C(=O)N1CCC2(CCCN(C(=O)Nc3ccccc3)C2)CC1,–,inactive: 2.96% [at 12.7 µM]
CC(C)c1ccc(NC2CCCN(C(=O)c3cnsn3)C2)cc1 (stereo not given),active: 35.5 µM,–
CCc1[nH]c(=S)c(C#N)c2c1CCCC2,active: 3.16 µM,–
CCOC(=O)CSc1nc2ccc(Nc3nc(N4CCOCC4)nc(N4CCOCC4)n3)cc2s1,"inconclusive: 39.8 µM [inhibitor, single point]",–
CCN(Cc1ccccc1)C(c1cc2cc(C)ccc2[nH]c1=O)c1nnnn1CCOC (stereo not given),"inconclusive: 28.2 µM [inhibitor, single point]",–
CCCN1C/C(=C/c2ccc3c(c2)OCO3)C(=O)/C(=C/c2ccc3c(c2)OCO3)C1,"inconclusive: 35.5 µM [inhibitor, single point]",–
COc1ccccc1CNC(=S)Nc1cc(C)ccc1C,"inconclusive: 2.51 µM [inhibitor, partial curve, poor fit]",–
CC(=O)c1ccccc1OC(=O)c1ccc([N+](=O)[O-])o1,"inconclusive: 28.2 µM [inhibitor, single point]",–
NC(=O)C1=C[C@@H](c2ccc(Br)cc2)C[C@@H](OCCCCO)O1,–,inconclusive: -72.3% [inhibitor]
O=C(NCCc1cscn1)C1CCC(=O)N(Cc2ccc(Cl)cc2)C1 (stereo not given),active: 70.8 µM,–
Cn1ncc(Cl)c1C(=O)N1CCc2ccccc21,"inconclusive: 1.41 µM [inhibitor, partial curve, poor fit]",–
COC(=O)c1ccccc1C(=O)N1CCCC(CCC(=O)NCc2ccc(F)c(F)c2)C1 (stereo not given),active: 5.62 µM,–
CN(C)S(=O)(=O)c1cccc(NC(=O)CSc2nnnn2-c2ccccc2)c1,inactive,–
COc1ccccc1/C=C\C=N\n1c(C2CCCCC2)n[nH]c1=S,–,inactive: -4.62% [at 0.0925 µM]
Cc1ccc(N=Nc2ccc(N)cc2C)c(S(N)(=O)=O)c1,active: 20 µM,–
Cc1cccc(N2CCN(C(=O)COc3cccc4c3OC(C)(C)C4)CC2)c1C,active: 44.7 µM,–
COc1ccc(-c2nc(C#N)c(NC(C)c3ccccc3)o2)cc1OC (stereo not given),"inconclusive: 31.6 µM [inhibitor, single point]",–
COc1ccc(/C=C/C(=O)Oc2cc(O)cc(O)c2)cc1,"inconclusive: 50.1 µM [inhibitor, partial curve, poor fit]",–
COc1ccc(-c2onc(C)c2-c2ccc3c(c2)OCCO3)c(O)c1,"inconclusive: 79.4 µM [inhibitor, partial curve, poor fit]",–
COc1ccccc1C(=O)NC(=O)COC(=O)CNC(=O)c1ccc(Cl)cc1Cl,active: 50.1 µM,–
Nc1nc(SCC(=O)Nc2ccccc2Sc2ccc(Cl)cc2)n[nH]1,"inconclusive: 79.4 µM [inhibitor, single point]",–
COc1ccc(N2C(=O)CC(NC3CC3)C2=O)cc1 (stereo not given),–,inactive: 12.9% [at 12.7 µM]
COc1ccc(NC(=O)CSc2cn(CCNC(=O)c3c(F)cccc3F)c3ccccc23)cc1,inactive,–

Structure (SMILES),Potency,"activity, negative = inhibition"
Cc1ccc(S(=O)(=O)n2ccc(-c3ccc(OCc4c(F)cccc4Cl)cc3)n2)cc1,"inconclusive: 39.8 µM [inhibitor, single point]",–
Cc1ccc2[nH]c(=O)c(CN(CC3CCCO3)C(=S)NCc3ccco3)cc2c1 (stereo not given),inactive,–
COc1ccc(C(=O)N(Cc2ccc(N(C)C)cc2)CC2CCCO2)cc1 (stereo not given),active: 11.2 µM,–
CC[C@H](C)Cc1cn([C@@H](CCCCNC(=O)OC(C)(C)C)C(=O)NCCCCCCCCCCC(=O)N2CCN(C(=O)OC(C)(C)C)CC2)nn1,–,inactive: 13.9% [at 2.33 µM]
Cc1coc2c(C)c3oc(=O)c(CCC(=O)N4CCC(C(=O)NCCCC(=O)O)(c5ccccc5)CC4)c(C)c3cc12,"inconclusive: 5.62 µM [inhibitor, partial curve, poor fit]",–
S=C(Nc1ccc(Cl)cc1)Nc1ccc2cn[nH]c2c1,"inconclusive: 50.1 µM [inhibitor, single point]",–
CC(=O)Nc1ccc2nc(NC(=O)CS(=O)(=O)c3ccc(C)cc3)sc2c1,"inconclusive: 6.31 µM [inhibitor, single point]",–
CC(=O)Nc1ccc(/C=C/C(=O)c2ccccc2)cc1,–,inactive: -1.87% [at 2.33 µM]
CCOC(=O)c1c(NC(=O)CSc2nc3ccc(C)cc3[nH]2)sc2c1CC(C)(C)NC2(C)C,active: 44.7 µM,–
CCC(C)n1c(=N)c(C(=O)NC2CCCCC2)cc2c(=O)n3ccccc3nc21 (stereo not given),inactive,–
Clc1ccccc1OCCn1ccnc1,active: 10 µM,–
COc1ccc(-c2noc(-c3ccc(NC4CCCC4)c([N+](=O)[O-])c3)n2)cc1OC,"inconclusive: 28.2 µM [inhibitor, partial curve, poor fit]",–
Cc1ccc(NC(=O)Cn2cnc3c2c(=O)n(C)c(=O)n3C)cc1C,inactive,–
CCOC(=O)c1ccc(CS(=O)c2ccc(Cl)cc2)o1 (stereo not given),"inconclusive: 3.55 µM [inhibitor, full curve, poor fit]",–
CCN(C(=O)Cn1c(=O)n(Cc2ccccc2)c(=O)c2c1c1cc(OC)ccc1n2C)c1ccccc1,"inconclusive: 4.47 µM [inhibitor, partial curve, poor fit]",–
Cc1cccc(C(=O)NCc2nnc(SCC(=O)NC3CCCC3)n2C)c1,"inconclusive: 7.94 µM [inhibitor, partial curve, poor fit]",–
O=C(NCCCNc1ccc([N+](=O)[O-])cc1)C(F)(F)F,"inconclusive: 89.1 µM [inhibitor, single point]",–
CCOC(=O)C1CCCN(C(=O)COc2ccc(N(C)S(=O)(=O)c3ccc(F)cc3)cc2)C1 (stereo not given),inactive,–
Cc1sc2ncnc(SCc3ccc(C(=O)O)cc3)c2c1C,active: 44.7 µM,–
Cc1ccc(-n2c(SCC(=O)OC(C)C)nnc2-c2ccncc2)cc1,"inconclusive: 28.2 µM [inhibitor, single point]",–
CC1CN(CCOCCSc2ccc(Cl)cc2)CC(C)O1 (stereo not given),"inconclusive: 0.316 µM [inhibitor, full curve, poor fit]",–
OCCC1CN(Cc2ccc3nonc3c2)CCN1Cc1ccsc1 (stereo not given),inactive,–
CCCOc1ccc(C2c3c(oc4ccccc4c3=O)C(=O)N2CCCN2CCOCC2)cc1 (stereo not given),–,inconclusive: -94.4% [inhibitor]
Cc1cc(OCC(=O)N2CCC(C(=O)O)CC2)c2c(C)cc(=O)oc2c1,"inconclusive: 6.31 µM [inhibitor, single point]",–

Structure (SMILES),Potency,"activity, negative = inhibition"
O=C1NC(=O)/C(=C/c2cc3c(cc2Br)OCO3)S1,"inconclusive: 79.4 µM [inhibitor, partial curve, poor fit]",–
O=C(CCCOc1cccc(Br)c1)NCCOc1ccccc1,inactive,–
CC(C)(C)OC(=O)N1CCC(c2c(C(=O)NCCN3CCOCC3)cnn2-c2ccc(F)cc2)CC1,inactive,–
Cc1cc(C)[n+](-c2ccc(Oc3ccccc3)c(S(=O)(=O)[O-])c2)[nH]1,"inconclusive: 56.2 µM [inhibitor, partial curve, poor fit]",–
COc1ccc(CCC(C(O)C(F)(F)F)S(=O)c2ccccc2)cc1 (stereo not given),"inconclusive: 4.47 µM [inhibitor, single point]",–
Cc1ccccc1-n1c(=O)n(Cc2ccco2)c(=O)c2[nH]cnc21,"inconclusive: 79.4 µM [inhibitor, single point]",–
CC(C)(C)OC(=O)CN1C(=O)S/C(=C\c2ccc(-c3cccc(C(=O)O)c3)o2)C1=O,active: 56.2 µM,–
COc1ccc(CC(=O)Nc2ccc(N3CCCC3)c(C)c2)cc1,active: 8.91 µM,–
Nc1c(C(=O)Nc2nccs2)sc2nc(-c3cccs3)cc(C(F)(F)F)c12,inactive,–
CCOC(=O)C1=C(CC)Nc2ccccc2N/C1=N\S(=O)(=O)c1ccc2ccccc2c1,"inconclusive: 70.8 µM [inhibitor, partial curve, poor fit]",–
Nc1ccccc1Nc1c(F)c(F)nc(F)c1Cl,active: 12.6 µM,–
COc1ccc2c(c1)CCc1sc(NC(=O)c3ccc(C)cc3)nc1-2,inactive,–
COc1ccc(-c2cn3c(C)c(C(=O)N4CCc5ccccc5C4)sc3n2)cc1,active: 35.5 µM,–
NC(=S)NNC(=S)Nc1ccccc1,active: 10 µM,–
CC(C)CN(C(=O)CCNC(=O)c1ccc(Cl)cc1)c1c(N)n(CC(C)C)c(=O)[nH]c1=O,"inconclusive: 28.2 µM [inhibitor, single point]",–
Cc1cc(C(=O)COc2cc(F)ccc2[N+](=O)[O-])c(C)n1C1CC1,active: 35.5 µM,–
Cc1nc2ccccc2nc1NS(=O)(=O)c1ccc(N)cc1,"inconclusive: 89.1 µM [inhibitor, single point]",–
O=S(=O)(NCCOc1cccc2cccnc12)c1ccc(F)cc1,"inconclusive: 1 µM [inhibitor, single point]",–
C/C=N\NC(=O)CNC(=O)CNC(=O)c1ccccc1,"inconclusive: 50.1 µM [inhibitor, partial curve, poor fit]",–
CCN(CC)S(=O)(=O)c1ccc2c(c1)N(CC(=O)Nc1cccnc1Cl)C(=O)CO2,"inconclusive: 50.1 µM [inhibitor, partial curve, poor fit]",–
CCN1C(=O)/C(=C2\SC(=S)N(NC(=O)c3cccnc3)C2=O)c2ccccc21,active: 39.8 µM,–
CCOc1ccc(-c2nonc2NC(=O)c2oc3cc(C)ccc3c2C)cc1OCC,"inconclusive: 31.6 µM [inhibitor, single point]",–
